Results taken from PubChem BioAssay AID588342 (National Center for Advancing Translational Sciences (NCATS), 2011).
About 25,000 (6.9%) of roughly 360,000 compounds were called active. The inconclusive results got no clear call from the source; some entries with a clear call stand among them for comparison. Calls come from the whole dose curve; as a rule, active = well fitted inhibition curve with a large enough effect; inconclusive = small, poorly fitted or top-dose-only effect; inactive = flat fitted curve, though single readings scatter. Where the call is inconclusive, the potency comes from a doubtful curve fit.

target: Luciferin 4-monooxygenase (Photinus pyralis) (UniProt P08659); test: qHTS profiling assay for firefly luciferase inhibitor/activator using purifed enzyme and Km concentrations of substrates (counterscreen for miR-21 project); settings: purified FLuc, luminescence inhibition; series mostly up to 57.5 µM; activity change, negative = inhibition: at the top concentration; note: nearly all actives have a fitted effect of over 55% in size;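 for activity change, negative = inhibition: plate controls were vehicle for no effect and reference inhibitor for full effect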
Method in brief: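 Purified P. pyralis luciferase (10nM final) with 10uM D-luciferin and 10uM ATP (Km levels) in 50mM Tris acetate pH 7.5, 10mM Mg acetate, 0.01% Tween-20, 0.05% BSA; qHTS 6-point titration, ~60 µM downward; luminescence read.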
Potency is the fitted concentration of half-maximal effect; tags give direction and shape of the fitted curve.

Chain of UniProt P08659 (P08659 whole entry, looked up): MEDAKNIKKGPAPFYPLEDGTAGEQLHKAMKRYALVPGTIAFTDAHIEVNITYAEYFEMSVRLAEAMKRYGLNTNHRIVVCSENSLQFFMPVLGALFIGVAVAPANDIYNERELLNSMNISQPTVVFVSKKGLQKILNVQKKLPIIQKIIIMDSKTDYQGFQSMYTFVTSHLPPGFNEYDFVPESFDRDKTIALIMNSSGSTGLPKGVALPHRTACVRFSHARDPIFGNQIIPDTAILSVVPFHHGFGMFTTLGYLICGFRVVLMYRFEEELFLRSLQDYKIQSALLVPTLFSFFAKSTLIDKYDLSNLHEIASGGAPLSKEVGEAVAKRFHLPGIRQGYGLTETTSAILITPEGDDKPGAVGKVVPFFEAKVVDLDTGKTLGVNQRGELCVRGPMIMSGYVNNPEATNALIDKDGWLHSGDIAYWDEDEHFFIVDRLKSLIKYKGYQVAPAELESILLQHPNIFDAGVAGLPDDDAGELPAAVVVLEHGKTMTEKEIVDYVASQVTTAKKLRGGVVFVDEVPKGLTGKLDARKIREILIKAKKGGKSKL

SMILES	Potency	activity change, negative = inhibition
Cc1c(/C(O)=C2\C(=O)C(=O)N(CCN(C)C)C2c2cccs2)cnn1-c1ccccc1 (stereo not given)	inconclusive: 16.9 µM [inhibitor, partial curve]	–
COc1ccc(CCNC(=O)c2cc(-c3ccccc3OC)on2)cc1OC	inconclusive: 26.9 µM [inhibitor, single point]	–
COc1ccc(-n2c(=S)[nH]c3cc(C(=O)NCc4cccnc4)ccc3c2=O)c(OC)c1	–	inactive: -2.39%
NC(=O)c1c(NC(=O)c2ccc(F)cc2)sc2c1CCC2	active: 4.26 µM	–
Cc1ccc(NC(=O)c2ncoc2-c2ccco2)cc1Cl	active: 10.7 µM	–
CCOC(=O)N1CCN(c2c(NCCc3ccc(OC)c(OC)c3)c(=O)c2=O)CC1	–	inactive: 0.117%
O=C(C[n+]1ccc(Cc2ccccc2)cc1)Nc1ccccc1	–	inactive: -10.6%
Cc1cnc(C(=O)OCC(=O)c2ccc(C)s2)cn1	inconclusive: 15.1 µM [inhibitor, partial curve, poor fit]	–
Cn1nccc1C(=O)NC1CC(C)(C)Cc2c1cnn2-c1ccc(F)cc1 (stereo not given)	–	inactive: 3.63%
O=C(Nc1ccc(F)cc1F)c1cc2ncc(Br)cn2n1	inconclusive: 7.57 µM [inhibitor, partial curve, poor fit]	–
Cc1[nH]n(-c2ccc([N+](=O)[O-])cc2)c(=O)c1/C=N/N1CCOCC1	inconclusive: 30.1 µM [inhibitor, partial curve, poor fit]	–
COC(=O)c1ccc2c(c1)C(C)(C)C(/C=C/c1ccc(O)cc1)=[N+]2C	active: 13.5 µM	–
CCc1ccccc1NC(=O)c1cc2sccc2n1C	inconclusive: 21.3 µM [inhibitor, partial curve, poor fit]	–
COc1ccc(NC(=O)/C(C#N)=C\c2cc(C)n(-c3ccc4c(c3)OCO4)c2C)cc1	inconclusive: 33.8 µM [inhibitor, single point]	–
O=C(CN1C(=O)c2ccccc2S1(=O)=O)c1ccc(F)cc1	active: 13.5 µM	–
O=C(COc1ccc(-c2ccccc2)cc1)N1CCN(C(=O)c2cccs2)CC1	inconclusive: 30.1 µM [inhibitor, single point]	–
CCOc1ccc2nc(N3CCCC(C(=O)NCCCN4CCCCC4)C3)sc2c1 (stereo not given)	inconclusive: 30.1 µM [inhibitor, single point]	–
Cn1cccc1-c1cc2n(n1)CCC(=O)N2CCCC(=O)NCc1ccc(F)cc1	–	inactive: -2.36%
COc1ccc(C(=O)Nc2ccc3oc(-c4ccc5ccccc5c4)nc3c2)cc1Br	inconclusive: 16.9 µM [inhibitor, partial curve, poor fit]	–
Cc1cccc(C(=O)Nc2nnc(-c3ccco3)o2)c1	–	inactive: -15.3%
CCOc1ccc(S(=O)(=O)N2CCOCC2)cc1NC(=O)Cc1c(F)cccc1Cl	–	inactive: -2.02%
CCN(CC)S(=O)(=O)c1ccc2oc(C(=O)Nc3cc(C)ccc3OC)c(C)c2c1	–	inactive: -1.15%
COc1ccc(OC)c(NC(=O)Nc2cccc(Cn3cccn3)c2)c1	inconclusive: 16.9 µM [inhibitor, single point]	–
CC(C)(C)c1ccc(C(=O)N2CCCCCC2=O)cc1	inconclusive: 23.9 µM [inhibitor, partial curve, poor fit]	–
O=C(COC(=O)c1c2c(nc3ccccc13)/C(=C/c1ccco1)CC2)NC1CCCC1	active: 5.36 µM	–

SMILES	Potency	activity change, negative = inhibition
Cc1ccc2c(=O)c(C(=O)NCc3cccs3)c[nH]c2c1	active: 16.9 µM	–
COc1ccc(Nc2nc(N3CCCCC3)c3ccccc3n2)cc1	inconclusive: 26.9 µM [inhibitor, single point]	–
COc1ccc(-n2nc(C(=O)NCC(=O)N3CCN(c4ccccc4F)CC3)c3ccccc3c2=O)cc1OC	active: 0.953 µM	–
O=C(O)c1c(NC(=O)c2cccc3ccccc23)sc2c1CCC2	inconclusive: 26.9 µM [inhibitor, single point]	–
S=C(Nc1ccc2nsnc2c1)N1CCCCC1	inconclusive: 9.53 µM [inhibitor, single point]	–
O=C(O)COc1ccc(Oc2ccccc2)cc1	inconclusive: 37.9 µM [inhibitor, partial curve, poor fit]	–
Cc1ccc2oc(C(=O)N3CCC(O)(c4cccc(C(F)(F)F)c4)CC3)c(C)c2c1	inconclusive: 26.9 µM [inhibitor, single point]	–
CCOc1ccc(OC(=O)c2c(-c3ccccc3Cl)noc2C)cc1	–	inactive: 1.62%
COC1=C/C(=C/c2c(N)n3nc(-c4ccc(C)cc4)sc3nc2=O)C=CC1=O	active: 15.1 µM	–
CCn1cc(C(=O)NCCc2ccc(C)cc2)c(=O)c2cc(S(=O)(=O)N3CCc4ccccc4C3)ccc21	–	inactive: 3.36%
Cc1ccc(C)c(S(=O)(=O)Nc2ccccc2C(=O)Nc2cc(C)on2)c1	–	inactive: -2.18%
C/C(=N\NC(=O)c1ccco1)c1cc(Cl)sc1Cl	inconclusive: 21.3 µM [inhibitor, single point]	–
COc1cccc(-c2csc(N3CCN(C(=O)Nc4ccc(Cl)cc4)CC3)n2)c1	inconclusive: 19 µM [inhibitor, partial curve]	–
CC(C)CNC(=O)c1cnn2c(C(F)(F)F)cc(C(F)(F)F)nc12	–	inactive: -1.61%
Cn1c(CCc2ccc(N)cc2)nc2ccccc21	active: 12 µM	–
COC(=O)c1ccc(NC(C)C(=O)OC)c([N+](=O)[O-])c1 (stereo not given)	inconclusive: 26.9 µM [inhibitor, partial curve, poor fit]	–
O=C(Cc1c[nH]c2ccccc12)OCC(=O)c1ccccc1	inconclusive: 21.3 µM [inhibitor, single point]	–
CCc1nnc(NC(=O)c2ccc(Cl)c(S(=O)(=O)N3CCc4ccccc43)c2)s1	–	inactive: 1.97%
COC(=O)C1C(=O)c2c([nH]c(C(=O)OC3CCCC3)c2C)CC1C (stereo not given)	active: 2.39 µM	–
C=CCNC(=O)c1ccc2c3n(nc2c1)-c1ccccc1CO3	active: 0.675 µM	–
Cc1ccc(-c2nc3n(n2)Cc2ccccc2-3)cc1	active: 0.301 µM	–
Cc1cc(C)cc(OCC(=O)Nc2ccncc2)c1	–	inactive: -2.42%
COc1ccc(C2C=C(c3ccccc3)Nc3ncnn32)cc1 (stereo not given)	inconclusive: 21.3 µM [inhibitor, partial curve, poor fit]	–
Cc1cc(C)c(C)c(S(=O)(=O)ON2C(=O)c3ccccc3C2=O)c1C	inconclusive: 30.1 µM [inhibitor, single point]	–
COc1ccc(/C=N/O)cc1COc1ccc(NC(C)=O)cc1	inconclusive: 21.3 µM [inhibitor, partial curve, poor fit]	–

SMILES	Potency	activity change, negative = inhibition
O=C(O)Cn1c(SCc2ccccc2)nc2ccccc21	inconclusive: 37.9 µM [inhibitor, partial curve, poor fit]	–
NC(=O)CCCc1nc(-c2ccccc2Cl)no1	inconclusive: 23.9 µM [inhibitor, partial curve, poor fit]	–
CC(O)CNC(=O)C(=O)Nc1c2c(nn1-c1ccc(Cl)cc1)CSC2 (stereo not given)	inconclusive: 30.1 µM [inhibitor, partial curve, poor fit]	–
Clc1ccc(Cl)c(-c2nc(-c3ccncc3)no2)c1	inconclusive: 7.57 µM [inhibitor, full curve]	–
CCOc1ccc2c(c1)c(N=Nc1cccc(C(=O)O)c1)c(O)n2C	inconclusive: 21.3 µM [inhibitor, partial curve]	–
COc1ccc(C)cc1S(=O)(=O)N1CCN(c2ccccc2)CC1	–	inactive: -0.562%
COc1ccc(-c2noc(C3CCCN(C(=O)c4ccccc4)C3)n2)cc1 (stereo not given)	active: 19 µM	–
O=C(Nc1ccccc1)c1cccc(C(F)(F)F)c1	inconclusive: 26.9 µM [inhibitor, single point]	–
O=C(Nc1ccc(Br)cc1)N1CCc2ccccc2C1	active: 10.7 µM	–
CCc1ccc(-c2cc3c(=O)n(CC(=O)NCCCN4CCC(Cc5ccccc5)CC4)nc(C)n3n2)cc1	inconclusive: 12 µM [inhibitor, partial curve]	–
COc1ccc(/C=N/OCc2ccc(Br)cc2)c(OC)c1	inconclusive: 23.9 µM [inhibitor, partial curve, poor fit]	–
CN(CC(=O)Nc1ccc(Cl)c(C(F)(F)F)c1)C(=O)c1cn2ccccc2n1	inconclusive: 37.9 µM [inhibitor, partial curve, poor fit]	–
Cc1ccc(C)c(C(=O)COC(=O)c2cc(Cl)nc3ccccc23)c1	active: 12 µM	–
COc1ccc(Nc2nc(-c3ccncc3)nc3ccccc23)cc1	–	inactive: -5.09%
Cc1ccc(C)c(NC(=O)Cn2c(=O)n(-c3ccccc3C)c(=O)c3c2c2cc(C)ccc2n3C)c1	–	inactive: -4.13%
COc1ccc(SCC(=O)c2cc(C)c(OC(=S)N(C)C)c(C)c2)cc1	active: 16.9 µM	–
Nn1c(SCC(=O)Nc2nccs2)nnc1-c1ccccn1	–	inactive: 0.95%
Cc1ccc(-n2cc3c(c2-c2ccccc2Br)c(=O)n(C)c(=O)n3C)cc1N	–	inactive: 3.84%
CN(C)S(=O)(=O)c1ccc(N2CCCC2)c(C(=O)Nc2ccccc2OC(F)F)c1	–	inactive: -1.82%
O=C(CCNS(=O)(=O)c1ccc(OC(F)(F)F)cc1)N1CCN(C/C=C/c2ccccc2)CC1	–	inactive: 8.21%
CCOc1cc(/C=N/Nc2nc(Nc3ccccc3)nc(N3CCCCC3)n2)ccc1OCC(=O)O	active: 1.07 µM	–
O=C(COc1ccc(Cl)cc1)N1CCCCCCC1	–	inactive: -16%
COc1ccc(C2=C/C(=C\c3ccccc3OC(C)=O)C(=O)O2)cc1	inconclusive: 13.5 µM [inhibitor, partial curve]	–
COC(=O)c1ccc(C2C=C(c3ccc(Cl)cc3)Nc3nc4ccccc4n32)cc1 (stereo not given)	active: 6.75 µM	–
Cc1cc(N/C=C\C(=O)c2ccc(Cl)c(Cl)c2)no1	inconclusive: 2.39 µM [inhibitor, partial curve, poor fit]	–
